Patent US10435371B2, “Multifunctional aminoquinoline therapeutic agent” (LOHOCLA RESEARCH CORPORATION, priority 2014, dated 2019)
Read-outs that look alike come from different tables or passages of the source.

Legend:
delta opiate receptor = delta opiate receptor (Homo sapiens, UniProt P41143); test: cAMP accumulation, HEK293 cells transfected with DA receptor, delta opiate receptor and AC7; type: cell-based; parameters: expressed in transfected cells; host or cells: HEK293 (ATCC), calcium phosphate transient transfection
MOR (μ opiate receptor) = MOR (μ opiate receptor) (Homo sapiens, UniProt P35372); test: PDSP radioligand binding, [^3H]DAMGO
[1] = molecular target: T1, Delta Opiate Receptor (DOR) (Homo sapiens, UniProt P41143); test: biochemical
[2] = molecular target: T1, Delta Opiate Receptor (DOR); details: read-out: Binding constant Ki, Delta Opiate Receptor; radioligand displacement

T1 sequence (P41143 whole entry): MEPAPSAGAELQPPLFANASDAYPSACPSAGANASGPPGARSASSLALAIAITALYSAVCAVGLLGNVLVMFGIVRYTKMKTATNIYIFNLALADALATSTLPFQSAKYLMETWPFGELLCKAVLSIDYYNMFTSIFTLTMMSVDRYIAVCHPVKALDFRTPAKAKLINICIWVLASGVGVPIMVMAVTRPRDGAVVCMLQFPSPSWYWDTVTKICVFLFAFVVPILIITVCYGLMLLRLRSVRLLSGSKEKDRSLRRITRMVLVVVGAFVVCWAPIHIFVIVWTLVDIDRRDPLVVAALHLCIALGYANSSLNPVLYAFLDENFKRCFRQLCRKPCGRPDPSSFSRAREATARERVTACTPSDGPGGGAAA
Chain of delta opiate receptor (P41143 whole entry): as above
Chain of MOR (μ opiate receptor) (P35372 whole entry): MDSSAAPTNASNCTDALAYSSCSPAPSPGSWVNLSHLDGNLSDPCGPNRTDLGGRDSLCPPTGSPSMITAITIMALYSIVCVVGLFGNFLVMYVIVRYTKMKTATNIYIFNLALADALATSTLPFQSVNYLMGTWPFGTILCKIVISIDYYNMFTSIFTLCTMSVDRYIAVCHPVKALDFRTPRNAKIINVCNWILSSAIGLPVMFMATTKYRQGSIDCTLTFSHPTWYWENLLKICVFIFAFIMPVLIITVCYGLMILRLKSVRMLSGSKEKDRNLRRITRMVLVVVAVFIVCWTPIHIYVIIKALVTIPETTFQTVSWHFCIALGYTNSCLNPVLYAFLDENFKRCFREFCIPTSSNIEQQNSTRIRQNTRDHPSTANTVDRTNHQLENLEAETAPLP

SMILES | Character of action at the delta opiate receptor (delta opiate receptor) | Effect on cAMP accumulation in the presence of dopamine (delta opiate receptor; DOR, BCUKA 10 and 20 μM, DPDPE 1 μM, FIG. 2) | Ki (MOR (μ opiate receptor)) [µM] | Ki [1] [µM] | Ki [2] [µM]
CCCCN(CCCC)C(=O)Nc1cc(C(=O)O)nc2cc(Cl)cc(Cl)c12 [BCUKA, 5,7-dichloro-4-(3,3-dibutylureido)quinoline-2-carboxylic acid] | agonist | increased cyclic AMP accumulation | > 10 | 1.7 ± 0.41 | 
CCOC(=O)c1cc(NC(=O)N(c2ccccc2)c2ccccc2)c2c(Cl)cc(Cl)cc2n1 [DCUK-OEt] |  |  |  |  | > 10
O=C(O)c1cc(NC(=O)N(c2ccccc2)c2ccccc2)c2c(Cl)cc(Cl)cc2n1 [DCUKA, 5,7-dichloro-4-(3,3-diphenylureido)quinoline-2-carboxylic acid] |  |  |  | 4.5 ± 0.73 | 
